Laboratory results as given in PubChem BioAssay AID1508623 (National Center for Advancing Translational Sciences (NCATS), 2021).
Hit rate of the full screen: of about 48,000 compounds, about 450 (0.94%) were called active. Roughly 19% stayed inconclusive and do not appear here. Calls follow the shape of the dose curve; as a rule, active = well fitted inhibition curve with a large enough effect; inconclusive = small, poorly fitted or top-dose-only effect; inactive = no such curve, though single readings can be large or run the other way. The list shows a part of the results.

experiment: Primary qHTS for Identification of Small Molecule Inhibitors of Huntingtin Promoter Activity; settings: HEK293 HTT promoter firefly luciferase reporter (activity 0% = vehicle and -100% = no light), 24 h; series mostly up to 57.5 µM; activity change, negative = inhibition: at the top concentration; also: nearly all actives have a fitted effect of over 50% in size
Source text: Assay Provider: Russell L. Margolis M.D.
Department Neurology, Johns Hopkins University School of Medicine, Baltimore, MD
Huntington's Disease (HD) is a neurodegenerative disorder caused by a CAG repeat expansion in exon 1 of huntingtin (HTT). While there are currently no disease-modifying treatments for HD, recent efforts have focused on development of nucleotide-based therapeutics to lower HTT expression. As an alternative to siRNA or oligonucleotide methods, we hypothesized that suppression of HTT expression might be accomplished by small molecules that either (1) directly decrease HTT expression by suppressing HTT promoter activity or (2) indirectly decrease HTT expression by increasing the promoter activity of HTT-AS, the gene antisense to HTT that appears to inhibit expression of HTT.
We developed and employed a high throughput screen for modifiers of HTT and HTT-AS promoter activity using luminescent reporter HEK293 cells; of the 52,041 compounds tested, we identified 898 replicable hits. We used a rigorous stepwise approach to assess compound toxicity and the capacity of the compounds to specifically lower huntingtin protein in 5 different cell lines, including HEK293 cells, HD lymphoblastoid cells, mouse primary neurons, HD iPSCs differentiated into cortical-like neurons, and HD hESCs. We found no compounds which were able to lower huntingtin without lowering cell viability in all assays, though the potential efficacy of a few compounds at non-toxic doses could not be excluded.
SEQUENCE No. (1, 2, 3, etc.); […] (e.g., Cells, Incubation, Reagent, etc.); VALUE and DESCRIPTION.
1; Reagent; 4 uL; 2,500 Hek293 luciferase reporter cells per wells
3; Compound; 23 nL; Control inhibitor / compound library
5; Reagent; 2.5 uL; Firefly Luc reagent; Dual-Glo Luciferase Reporter Assay System (Promega)
6; Time; 10 min; room temperature incubation
7; Detection; Luminescence; FLuc
NOTES (numbers refer to sequence above)
1; High-throughput screening, measuring luminescence from a Hek293 luciferase reporter, was performed in 1,536 well white-walled tissue-culture treated plates. 2,500 cells were plated in 4 µL of Opti-MEM per well using a Multidrop Combi Reagent Dispenser (ThermoFisher).
2; Assay plates were cultured for 24 hours.
3; Control inhibitor (PTC124; final concentration of 50 uM) and compound library (at final concentrations of 460 nM - 57.5 uM) were added to the assay plate using the Kalypsis Pintool Robotic System equipped with 1536 pinheads.
4; Cells were then incubated for 24 hours at 37 degrees C prior to luminescence measurements.
5; In all cases, luminescence was measured using the Dual-Glo Luciferase Reporter Assay System (Promega) following the manufacturer's instructions.
6; Room temperature incubation.
7; Luminescence signal was obtained using the PerkinElmer ViewLux plate reader. Results were normalized to vehicle control (0% activity) and zero RLU (-100% activity).

Activity change, negative = inhibition, inactive:
CCOCCc1nn2c(=O)cc(COC(=O)C(CC)c3ccccc3)nc2s1 (stereo not given) -17.8%
Cc1cccc(C(=O)Nc2ccccc2SCc2cc(=O)c3cccc(C)c3[nH]2)c1 -7.27%
COc1ccc(NC(=O)CCn2cccn2)cc1OC -10.6%
CCOc1ccc(NC(=O)Cn2c(=O)n(CCC(=O)NCCc3ccccc3)c(=O)c3ccccc32)cc1 -1.6%
Cc1ccc2occ(-c3cc(-c4ccc(Cl)cc4)nc4c3COc3ccccc3-4)c(=O)c2c1 -19.2%
Cc1ccc(Cn2c(=O)n(Cc3ccccc3Cl)c(=O)c3ccccc32)cc1 -10.8%
CCCCc1nn2c(=O)cc(COC(=O)c3ccc(NC(=O)C4CCCCC4)cc3)nc2s1 11.2%
COc1cccc(C2CC(=O)Nc3c2c(=O)nc2c(C)cccn32)c1OC (stereo not given) -0.172%
COc1ccccc1CNC(=O)c1cnn2c(C)c(Cc3ccc(F)cc3)c(C)nc12 -2.77%
Cc1ccc(C(c2sc3nc(-c4ccco4)nn3c2O)N2CCN(Cc3ccccc3)CC2)cc1 (stereo not given) 0.851%
Cc1ccc(-c2nc3cc(Cl)ccc3o2)cc1NC(=O)COc1ccc(F)cc1 8.46%
CCOC(=O)c1ccc(NC(=O)CN2C(=O)COc3ccc(Cl)cc32)cc1 -16.4%
CCOc1ccccc1NC(=O)Cn1nnc(C(=O)Nc2ccc(C)c(C)c2)c1N -2.04%
Cc1c(C(=O)N2CCC(C)CC2)c(S(=O)(=O)N2CCN(c3ccc(Cl)cc3)CC2)c(C)n1C -21.1%
Cn1nccc1C(=O)NCc1ccc2c(c1)CCN2C(=O)c1ccccc1 -8.28%
COc1ccc(-c2nc3sc(CCNC(=O)C(=O)Nc4c(C)cccc4C)c(C)n3n2)cc1 -8.17%
CC1CCCN(CCCNC(=O)CN2C(=O)CSc3ccc(S(=O)(=O)N4CCOCC4)cc32)C1 (stereo not given) -11.3%
Cc1ccc(Cl)cc1N1CCN(S(=O)(=O)c2cc3[nH]c(=O)c(=O)[nH]c3cc2C)CC1 -8.72%
CCc1ccc(OCC(=O)N(Cc2ccc(OC)cc2)C2CCS(=O)(=O)C2)cc1 (stereo not given) -8.36%
O=C(CCn1c(=O)c2cccn2c2cccnc21)N1CCN(c2cccc(Cl)c2)CC1 -8.61%
COc1ccc(NC(=O)C2CCCN2S(=O)(=O)c2ccc3nc(-c4ccccc4)[nH]c3c2)cc1 (stereo not given) -4.92%
CN1C(=O)Cc2cc(S(=O)(=O)NCCc3ccccc3)ccc21 -0.991%
COCCCNC(=O)Cn1cnc2sc(C)c(S(=O)(=O)N3CCN(c4ccccc4OC)CC3)c2c1=O -14.2%
CCOC(=O)c1cc(-c2ccc(C)cc2)n(CCC(=O)Nc2ccc(OC)c(OC)c2)c1C -26.7%
CCN1CCN(C(=O)c2ccc3c(c2)N(Cc2cccc(F)c2)C(=O)c2ccccc2S3)CC1 -15.1%
CCCCCN1C(C(=O)c2ccccc2)=C(NC(=O)c2ccccc2Cl)c2ccccc2S1(=O)=O -8.35% [at 11.5 µM]
COc1ccc(CCNC(=O)c2ccc3c(c2)N(Cc2ccc(Cl)cc2)CCS3)c(OC)c1 -26.8%
COC(=O)c1c(NC(=O)COc2cc(C)ccc2C(C)C)sc2c1CCC(C)C2 (stereo not given) -7.46%
Cc1cc(C)c(S(=O)(=O)n2cnc(C)c2)c(C)c1 1.3%
CC(=O)NC(C)c1ccc(Oc2ccc(OC(C)C)cc2)cc1 (stereo not given) 11.5%
CCC(C)NC(=O)C1CCC(CNS(=O)(=O)c2ccc(Cl)cc2)CC1 (stereo not given) -17.6%
Cc1ccc(-c2ccc(=O)n(CC(=O)NCc3ccc(F)cc3)n2)cc1 -12.1%
COc1ccc(-c2nc3n(n2)C(=O)CC(c2ccc(Cl)cc2)S3)cc1 (stereo not given) -2.69%
Cc1ccc2nc3c(cc(C(=O)NC4CCCCC4)c(=N)n3C(C)C)c(=O)n2c1 -4.52%
CCOC(=O)c1ccc(NC(=O)CC2NCCNC2=O)cc1 (stereo not given) 15.1%
CCn1c2ccccc2c2cc(NC(=O)COc3ccc(C)c(C)c3)ccc21 0.422%
CCOC(=O)C1CCN(S(=O)(=O)c2ccc3c(c2)NC(=O)C(C)C(=O)N3)CC1 (stereo not given) -14.2%
N#Cc1cccc(NC(=O)C2CCN(c3ncccn3)CC2)c1 3.8%
CCOc1cc(C(=O)Nc2ccc(-c3nc4ncccc4o3)cc2C)cc(OCC)c1OCC -15.6%
CCS(=O)(=O)CCSc1nc(-c2ccc(Br)cc2)cc(-c2ccccc2)c1C#N -4.85%
CC1=C(C(=O)Nc2ccccc2C)C(c2cccnc2)n2nc(SCc3ccccc3F)nc2N1 (stereo not given) -7.35%
O=C(O)CCc1ccc(-c2ccccc2)n1CC(=O)Nc1ccccc1C(F)(F)F -10.6%
COc1ccc2c(c1)c1c(c(=O)n(-c3ccccc3C)c(=O)n1CC(=O)Nc1c(C)cccc1C)n2C -13.6%
Cc1ccccc1Nc1nn2c(=O)c3ccc(C(=O)N4CCCC(C)C4)cc3nc2s1 (stereo not given) -10.3%
O=c1c2[nH]c3ccccc3c2nc(SCc2cccc(F)c2)n1-c1ccccc1 -14.7%
Cc1ccc(NC(=O)CCC(=O)N2Cc3ccccc3Oc3ncccc32)cc1 -0.978%
COc1ccc(NC(=O)Cn2c(SCc3ccc(C)cc3)nc3cccnc32)c(OC)c1 -27.9%
O=C(CCc1ccccc1)NC1CC(=O)N(c2ccccc2)C1 (stereo not given) -18.5%
COc1cccc(OC)c1C(=O)Nc1ccc2c(c1)N(C(C)=O)CCC2 -18.9%
CCOc1ccc(CNS(=O)(=O)c2cc(-c3cc(C)no3)ccc2C)cc1OC -28.6%
CC(C)(C)c1ccc(C(=O)CCCN2CCC(OC(c3ccccc3)c3ccccc3)CC2)cc1 3.64%
COc1ccc(-c2cnc(C)o2)cc1S(=O)(=O)Nc1ccc(C)c(N(C)C)c1 -19.4%
Cn1c(=O)[nH]c2cc(-c3noc(-c4ccc(F)cc4)n3)ccc21 45.6%
CCn1c(=O)cc(SCC(=O)NCCc2ccc(OC)cc2OC)c2ccccc21 -11.5%
COCCCNC(=O)CSc1nc(-c2ccccc2)[nH]c1-c1ccc(C)cc1 -24.5%
CCc1ccc(-n2c(=O)c3c4c(sc3n(CC(=O)NC(C)CC)c2=O)CCCC4)cc1 (stereo not given) -9.02%
CCc1cnc2c(c1SCC(=O)Nc1ccc(C)cc1C)c(=O)n(C)c(=O)n2C -2.9%
CCCn1c(=O)c2sccc2n2c(CCCC(=O)Nc3cccc(CC)c3)nnc12 -15.6%
CCc1ccc(-c2nn(CC(=O)NC3CCCCC3)c3c2cnc2ccc(OC)cc23)cc1 14.5%
Cc1ccc(Cl)cc1NC(=O)C(=O)NCCc1sc(-c2ccc(F)cc2)nc1C -15.5%
COc1ccc(CC(=O)Nc2sc3c(c2C(=O)Nc2c(C)cccc2C)CCCCC3)cc1 -9.58%
COc1ccc(NC(=O)CSC2=Nc3ccccc3C3=NC(CC(=O)NCc4ccc(F)cc4)C(=O)N23)cc1 (stereo not given) -18.8%
CCCOc1ccc(C(=O)Nc2c(C(=O)c3ccc(C)cc3)oc3ccccc23)cc1 -4.29%
COc1ccc(CNC(=O)Cn2c(=O)oc3cc(S(=O)(=O)N4CCCC4)ccc32)cc1 -16.9%
Cc1cccc(S(=O)(=O)c2cn(Cc3ccccc3)c3cc(N4CCCCC4C)c(F)cc3c2=O)c1 (stereo not given) -32.3%
CCCCc1ccc(C(=O)N/C(=C\c2ccc(C)cc2)C(=O)NC2CCCCC2)cc1 2.69%
Cc1cc(C(F)F)n2nc(C(=O)Nc3ccc(F)c(Cl)c3)nc2n1 5.69%
CCc1nc2ccc(C(=O)N3CCN(c4ccc(Cl)cc4)CC3)cc2nc1CC -13.9%
COc1cccc(Nc2nc(-c3ccccc3)c3cc(C)ccc3n2)c1 -21.8%
Cc1cccc(CNC(=O)c2ccc(Cn3c(=O)c4cccn4c4cccnc43)cc2)c1 -0.684%
C[C@H](Cn1cnc2c(N)ncnc21)OCP(=O)(O)O -19%
O=C(CC1N=C2c3ccccc3N=C(SCc3ccccc3F)N2C1=O)NCc1cccs1 (stereo not given) 30.4%
CCCCNc1cc(C(=O)O)cc(S(N)(=O)=O)c1Oc1ccccc1
COc1cc(C2CC(=O)Nc3c2c(=O)nc2c(C)cccn32)cc(OC)c1OC (stereo not given) -3.93%
Cc1nn2c(-c3cccc(NC(=O)c4ccc(Cl)cc4)c3)nnc2c2ccccc12 0.922%
CCS(=O)(=O)N1CCc2cc(C(=O)Nc3cc(Cl)ccc3C)ccc21 -15.4%
CCOC(=O)c1c(C)[nH]c(CCC(=O)Nc2ccccc2C(=O)OC)c1C 1.55%
CC(C)C(=O)Nc1ccc2nc(SCCOc3ccccc3)sc2c1 10.3%
COc1ccc(CCNC(=O)CCS(=O)(=O)c2ccc3c(c2)oc(=O)n3C)cc1OC 31.9% [at 11.5 µM]
Cc1ccc(N2CCN(C(=O)c3cn(C)c4ccc(S(=O)(=O)N(C)C5CCCCC5)cc4c3=O)CC2C)cc1 (stereo not given) -17.3% [at 11.5 µM]
O=C(Nc1ccc2nn(-c3ccccc3)nc2c1)c1ccc(-c2cccc(Cl)c2)o1 39.1%
CCOC(=O)[C@H](CCc1ccccc1)N[C@@H](C)C(=O)N(CC(=O)O)C1Cc2ccccc2C1 -7.58%
CCOc1ccc(C(=O)N2CCN(Cc3cc(=O)n4nc(-c5ccccc5Cl)sc4n3)CC2)cc1 -8.69%
O=C(CSc1nnc(CNC(=O)c2c(F)cccc2Cl)o1)Nc1cccc(F)c1 -20.1%
CCOc1ccc(NS(=O)(=O)c2ccc(NC(=O)N3CCCC3)cc2)cc1 -30.6%
CC(C)Cn1c(/C=C/c2ccc(F)cc2)nc2ccccc21 25.7%
COc1ccccc1NC(=O)C1=C(C)Nc2nc(SCc3cc(C)ccc3C)nn2C1c1ccccc1 (stereo not given) 13.8%
COc1cc2nc(Cl)nc(N)c2cc1OC -4.07%
CCn1c(C)c(C)c2cc(C(=O)NCCc3ccc(C)cc3)ccc21 -3.97%
Cc1ccccc1CS(=O)(=O)Cc1ccc(C(=O)NCc2ccc(F)cc2)o1 -29.2%
Cc1ccc(C)c(NC(=O)c2cc(=O)c3cc(C)cc(C)c3o2)c1 8.04% [at 11.5 µM]
COc1cccc(NC(=O)CCNC(=O)Cn2ccc3ccccc3c2=O)c1 -16.7%
CCc1ccc(NCc2cc3cc4c(cc3n(CC(=O)Nc3ccc(F)cc3)c2=O)OCCO4)cc1 -21.5%
Cc1ccc(NC(=O)CSc2nnc(N)s2)c(C)c1 -6.48%
COc1ccc(CNC(=O)C2CCN(S(=O)(=O)c3cccc4nonc34)CC2)cc1OC -0.655%
